Here are results for 14 sequences from the supplement of paper PMC12645437, “Orthogonal IMiD-Degron Pairs Induce Selective Protein Degradation in Cells” (ACS Chemical Biology, 2025).

B1: Q9UKT9 (peptide)
chain: FDCPICGAHFTQKGNLLRHIKL
B2: Q9UKT9 (peptide)
chain: FCCEVCGAFFTQKGNLLRHIKL
B3: Q9UKT9 (peptide)
chain: FKCDVCGALFTQKGNLLRHIKL
B4: Q9UKT9 (peptide)
chain: FWCEQCGACFTQKGNLLRHIKL
B5: Q9UKT9 (peptide)
chain: FVCNQCGRAFTQKGNLLRHIKL
B6: Q9UKT9 (peptide)
chain: FMCPVCGAWFTQKGNLLRHIKL
B7: Q9UKT9 (peptide)
chain: FQCEICGRQFTQKGNLLRHIKL
B8: Q9UKT9 (peptide)
chain: FWCEICGRDFTQKGNLLRHIKL
B9: Q9UKT9 (peptide)
chain: LACPICGFCCTQKGNLLRHIKL
B10: Q9UKT9 (peptide)
chain: FLCEICGRSFTQKGNLLRHIKL
B11: Q9UKT9 (peptide)
chain: FHCDVCGAKFTQKGNLLRHIKL
B12: Q9UKT9 (peptide)
chain: FKCNICGANFTQKGNLLRHIKL
B13: Q9UKT9 (peptide)
chain: FMCPICGAHFTQKGNLLRHIKL
B14: Q9UKT9 (peptide)
chain: FICPICGHMFTQKGNLLRHIKL

The list shows a part of the results.
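Also: jurkat cells carrying a lentiviral library of mutant zinc finger degrons fused to EGFP plus mCherry, mCherry+ cells FACS sorted, degron abundance counted by next-generation sequencing.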

The assay deals with no compound (DMSO). The assay is described as follows: log2 fold change of degron read counts, EGFP-low vs EGFP+ sorted cells; higher = lower degron-EGFP level without compound (poor expression or instability). The following applies: compound: DMSO control; 18 h.
Take B1: the “log2 fold change of degron read counts” value is -1.25. For B2, the “log2 fold change of degron read counts” value was -0.716.

Regarding B3, the “log2 fold change of degron read counts” value was -2.11. In the case of B4, the “log2 fold change of degron read counts” value is -0.592. The figure for B5 is -0.71; for B6 it is 0.662. B7: the “log2 fold change of degron read counts” value is -2.26. Regarding B8, the “log2 fold change of degron read counts” value is -1.1. The figure for B9 is 0.912; for B10 it is -0.989. B11: the “log2 fold change of degron read counts” value was -1.13. As for B12, the “log2 fold change of degron read counts” value was -0.593.

In the case of B13, the “log2 fold change of degron read counts” value was -0.502. B14: the “log2 fold change of degron read counts” value worked out at 0.259.
